The target of experiment [1] is T1, recombinant GST-mouse-S1ED (syndecan-1 ectodomain fused to GST) (mouse) (UniProt P18828).
T1 sequence: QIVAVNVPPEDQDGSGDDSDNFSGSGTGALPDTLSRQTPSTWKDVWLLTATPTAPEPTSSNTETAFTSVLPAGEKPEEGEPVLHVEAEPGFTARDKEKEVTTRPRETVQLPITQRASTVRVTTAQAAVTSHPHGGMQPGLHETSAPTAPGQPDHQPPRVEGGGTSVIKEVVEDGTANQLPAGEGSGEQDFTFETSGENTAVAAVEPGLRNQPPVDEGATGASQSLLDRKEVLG
Briefly: pull-down; recombinant His-tagged VEGFR2 protein precipitated with beads bearing GST or GST-S1ED; blot with anti-His; both purified.

By UniProt entry, the sequences of proteins in these tests, tags left out. Where a name states a change or a piece, a line headed by the entry shows the natural chain unless it says otherwise. Residues count along the entry.
UniProt P35968: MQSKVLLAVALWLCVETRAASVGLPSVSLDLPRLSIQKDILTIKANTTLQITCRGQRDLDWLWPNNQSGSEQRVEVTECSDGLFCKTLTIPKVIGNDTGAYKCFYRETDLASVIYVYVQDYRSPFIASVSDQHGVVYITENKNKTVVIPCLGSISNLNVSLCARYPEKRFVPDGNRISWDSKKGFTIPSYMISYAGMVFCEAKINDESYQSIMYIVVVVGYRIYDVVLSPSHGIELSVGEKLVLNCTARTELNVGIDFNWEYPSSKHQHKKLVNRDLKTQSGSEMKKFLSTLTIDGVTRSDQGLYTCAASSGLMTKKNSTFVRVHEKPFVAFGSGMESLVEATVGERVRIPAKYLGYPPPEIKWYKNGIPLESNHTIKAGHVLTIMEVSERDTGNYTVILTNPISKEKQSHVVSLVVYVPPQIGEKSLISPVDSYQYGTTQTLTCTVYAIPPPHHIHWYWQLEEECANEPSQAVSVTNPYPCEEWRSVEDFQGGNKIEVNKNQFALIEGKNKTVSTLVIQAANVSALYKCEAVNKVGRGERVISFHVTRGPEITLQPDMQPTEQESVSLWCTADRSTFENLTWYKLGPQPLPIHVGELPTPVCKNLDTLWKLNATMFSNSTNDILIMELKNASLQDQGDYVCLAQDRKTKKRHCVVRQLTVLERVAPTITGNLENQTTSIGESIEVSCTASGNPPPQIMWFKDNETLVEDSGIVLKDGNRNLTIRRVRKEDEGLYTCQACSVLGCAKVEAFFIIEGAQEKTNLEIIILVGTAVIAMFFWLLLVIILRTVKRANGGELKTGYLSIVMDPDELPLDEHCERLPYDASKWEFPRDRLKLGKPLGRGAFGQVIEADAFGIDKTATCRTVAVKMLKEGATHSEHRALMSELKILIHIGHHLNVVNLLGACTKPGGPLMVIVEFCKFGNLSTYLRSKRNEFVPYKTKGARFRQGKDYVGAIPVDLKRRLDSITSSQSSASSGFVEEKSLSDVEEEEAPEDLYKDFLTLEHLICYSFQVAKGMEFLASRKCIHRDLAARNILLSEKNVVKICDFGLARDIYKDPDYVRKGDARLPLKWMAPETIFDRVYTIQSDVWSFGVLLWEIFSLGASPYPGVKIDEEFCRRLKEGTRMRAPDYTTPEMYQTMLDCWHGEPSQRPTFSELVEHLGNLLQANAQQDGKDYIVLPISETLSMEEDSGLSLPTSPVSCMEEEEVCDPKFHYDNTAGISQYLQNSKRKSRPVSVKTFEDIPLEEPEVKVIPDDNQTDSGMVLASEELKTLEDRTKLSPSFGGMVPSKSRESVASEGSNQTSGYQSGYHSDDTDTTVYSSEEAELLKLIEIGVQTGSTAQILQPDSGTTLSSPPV
vascular endothelial cell growth factor receptor-2 (VEGFR2) (human (endogenous in CAG and HMEC-1 cells)): residues 20-1356 of P35968
UniProt P13612: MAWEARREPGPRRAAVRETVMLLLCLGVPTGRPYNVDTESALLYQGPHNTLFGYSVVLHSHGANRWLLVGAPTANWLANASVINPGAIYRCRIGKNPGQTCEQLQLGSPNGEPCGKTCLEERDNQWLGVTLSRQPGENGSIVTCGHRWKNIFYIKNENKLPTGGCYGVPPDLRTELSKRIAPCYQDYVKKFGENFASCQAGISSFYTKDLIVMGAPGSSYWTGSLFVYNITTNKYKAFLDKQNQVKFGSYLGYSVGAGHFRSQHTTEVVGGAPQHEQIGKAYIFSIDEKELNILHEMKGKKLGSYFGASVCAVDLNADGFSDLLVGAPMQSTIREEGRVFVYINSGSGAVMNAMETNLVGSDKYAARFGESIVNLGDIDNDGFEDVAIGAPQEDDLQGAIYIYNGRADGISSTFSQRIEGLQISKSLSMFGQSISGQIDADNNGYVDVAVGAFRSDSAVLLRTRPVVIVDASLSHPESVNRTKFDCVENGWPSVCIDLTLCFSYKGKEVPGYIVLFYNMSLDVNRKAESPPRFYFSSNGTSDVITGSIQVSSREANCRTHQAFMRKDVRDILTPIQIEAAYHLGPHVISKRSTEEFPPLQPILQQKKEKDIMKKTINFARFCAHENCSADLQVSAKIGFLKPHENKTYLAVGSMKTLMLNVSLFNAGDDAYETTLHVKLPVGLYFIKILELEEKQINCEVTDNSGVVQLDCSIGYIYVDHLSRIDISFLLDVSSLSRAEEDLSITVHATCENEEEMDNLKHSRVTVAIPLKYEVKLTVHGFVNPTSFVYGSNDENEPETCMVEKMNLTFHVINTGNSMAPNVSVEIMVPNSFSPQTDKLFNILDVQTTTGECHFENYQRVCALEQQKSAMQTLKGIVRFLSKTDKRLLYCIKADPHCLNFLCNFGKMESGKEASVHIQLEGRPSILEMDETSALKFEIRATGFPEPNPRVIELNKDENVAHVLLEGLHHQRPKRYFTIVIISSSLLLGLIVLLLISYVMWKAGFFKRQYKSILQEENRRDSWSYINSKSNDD
UniProt P05556: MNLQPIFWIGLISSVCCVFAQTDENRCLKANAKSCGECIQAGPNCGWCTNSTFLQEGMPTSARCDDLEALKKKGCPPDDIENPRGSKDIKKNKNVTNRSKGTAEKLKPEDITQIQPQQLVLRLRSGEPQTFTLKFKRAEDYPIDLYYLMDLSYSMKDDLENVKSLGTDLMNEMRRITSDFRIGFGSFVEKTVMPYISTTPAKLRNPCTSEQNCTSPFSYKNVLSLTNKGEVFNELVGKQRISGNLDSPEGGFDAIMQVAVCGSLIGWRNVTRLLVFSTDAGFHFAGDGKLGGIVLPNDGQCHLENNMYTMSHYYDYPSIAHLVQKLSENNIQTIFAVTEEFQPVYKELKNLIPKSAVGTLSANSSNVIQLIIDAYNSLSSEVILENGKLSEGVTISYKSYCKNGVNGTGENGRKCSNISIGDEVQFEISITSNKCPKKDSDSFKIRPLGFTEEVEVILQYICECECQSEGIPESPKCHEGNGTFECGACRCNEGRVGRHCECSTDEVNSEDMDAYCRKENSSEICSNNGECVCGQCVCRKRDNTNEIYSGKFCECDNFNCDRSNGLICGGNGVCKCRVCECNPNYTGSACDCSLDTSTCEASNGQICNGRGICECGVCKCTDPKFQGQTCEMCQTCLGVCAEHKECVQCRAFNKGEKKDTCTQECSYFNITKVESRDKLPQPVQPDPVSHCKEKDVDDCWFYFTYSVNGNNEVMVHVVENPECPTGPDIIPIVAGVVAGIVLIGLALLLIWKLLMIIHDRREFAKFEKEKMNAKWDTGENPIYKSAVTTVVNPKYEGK

Experiment [2] has as its target T1, recombinant GST-mouse-S1ED (syndecan-1 ectodomain fused to GST) (mouse). Briefly: pull-down; HMEC-1 cell lysate incubated overnight with glutathione beads coated with GST or GST-S1ED; blots for VLA-4 and VEGFR2; only the target purified.
For experiment [3] the target is unchanged. Nature of the experiment: pull-down; HPSE-low CAG cell lysates incubated at 4 °C overnight with 3 μM GST or GST-S1ED, captured on glutathione sepharose; blots for VLA-4 and VEGFR2; only the target purified.
The target of experiment [4] is T2, shed mouse Sdc1 ectodomain (mouse) (UniProt P18828).
T2 sequence: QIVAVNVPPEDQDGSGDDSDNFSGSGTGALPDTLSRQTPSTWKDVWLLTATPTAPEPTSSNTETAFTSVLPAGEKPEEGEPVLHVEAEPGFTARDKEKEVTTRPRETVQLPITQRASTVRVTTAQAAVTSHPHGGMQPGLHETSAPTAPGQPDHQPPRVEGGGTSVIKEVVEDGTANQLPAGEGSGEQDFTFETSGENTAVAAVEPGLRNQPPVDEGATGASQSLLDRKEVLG
Nature of the experiment: pull-down; shed mouse Sdc1 (wild type or mutant) captured from conditioned medium on mAb281.2 protein G beads at 4 °C overnight, beads re-incubated with CAG (HPSE-low) cell lysates at 4 °C overnight; blots for VLA-4 and VEGFR2; only the target purified.

The target in experiment [5] is vascular endothelial cell growth factor receptor-2 (VEGFR2) (human (endogenous in CAG and HMEC-1 cells)) (UniProt P35968). Briefly: pull-down; competition: 30 μM S1ED peptide added to HPSE-low CAG cell lysates with 3 μM GST-S1ED, 4 °C overnight, glutathione sepharose; loss of VLA-4 or VEGFR2 capture read on blots; only the binder purified.
Experiment [6] deals with very late antigen-4 (VLA-4, α4β1 integrin) (human (endogenous in CAG and HMEC-1 cells)) (UniProt P13612+P05556). The experiment is described as above.

These are yes or no findings as the source states them, for the method shown. For some of these results: Binding seen in cells or lysates may run through a third protein. Some binding calls cover weakened binding; strength is not graded here. For some of these results: Tags and fused reporters may be left off the sequences shown.

In the case of “His-recombinant VEGFR2 protein (purified, recombinant VEGFR2 extracellular domain) (from UniProt P35968 20-764) (domain or fragment)”, in experiment [1], the binding result is listed as “binds”.
On to “vascular endothelial cell growth factor receptor-2 (VEGFR2) (from UniProt P35968 20-1356)”, for which the binding entry in experiment [2], in experiment [3] and in experiment [4] was “binds” in each case.
On to “very late antigen-4 (VLA-4, α4β1 integrin) (from UniProt P13612 34-1032; P05556 21-798) (complex)”, for which the binding entry in experiment [2], in experiment [3] and in experiment [4] was “binds” throughout.

B1: S1ED^214-240 peptide (peptide, UniProt P18827 214-240)
peptide: ETSGENTAVVAVEPDRRNQSPVDQGAT
Consider B1, for which the binding result is “binds” in experiment [5] and “no binding (tested: 30 μM)” in experiment [6].

B2: S1ED^210-236 peptide (peptide, UniProt P18827 210-236)
peptide: DFTFETSGENTAVVAVEPDRRNQSPVD
For the molecule B2, the binding result in experiment [5] and in experiment [6] was “binds” in each case.

B3: S1ED^210-233 peptide (peptide, UniProt P18827 210-233)
peptide: DFTFETSGENTAVVAVEPDRRNQS
B3: the binding result in experiment [5] is on record as “no binding (tested: 30 μM)”; in experiment [6], “binds”.

The values are drawn from article PMC5154350.
